Measurements reported in PubChem BioAssay AID1346428 (National Center for Advancing Translational Sciences (NCATS), 2018).
The campaign covered roughly 48,000 compounds. About 1,200 (2.5%) were called active. About 2% were inconclusive and are not listed.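 Rule for the calls: active = activation of at least 60% and not above a set upper limit (about 1 call in 100 departs from these limits); inconclusive = activation of 40% to 60%, or above that upper limit; inactive = activation under 40%.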 This is one part of the list.

Biological target: Probable G-protein coupled receptor 32 (Homo sapiens) (UniProt O75388)
UniProt O75388, sequence (O75388 whole entry, looked up): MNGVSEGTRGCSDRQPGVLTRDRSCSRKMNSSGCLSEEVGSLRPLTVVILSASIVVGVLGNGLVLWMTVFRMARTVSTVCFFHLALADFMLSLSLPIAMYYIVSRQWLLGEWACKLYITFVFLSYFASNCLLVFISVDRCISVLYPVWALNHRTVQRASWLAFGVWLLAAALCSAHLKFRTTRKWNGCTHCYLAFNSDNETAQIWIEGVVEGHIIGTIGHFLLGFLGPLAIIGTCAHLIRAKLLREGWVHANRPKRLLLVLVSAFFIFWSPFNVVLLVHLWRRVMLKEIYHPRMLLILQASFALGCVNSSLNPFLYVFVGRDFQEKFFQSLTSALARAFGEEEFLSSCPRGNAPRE
Experiment: qHTS for Agonists of Human Resolvin D1 Receptor DRV1; note: 0% is about no effect
Details: CHO-K1 GPR32 beta-arrestin PathHunter luminescence, 90 min; at 76.9 µM; stronger effect = higher value; zero percent set by DMSO-only wells
Summary of the method: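 GPR32 activation in stably transfected CHO-K1 cells, detected as beta-arrestin recruitment by enzyme-fragment complementation. Compound exposure: 90 min, 37 °C.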

Q: With `COc1cccc(CNC(=O)c2cc3c(s2)-c2c(C)cccc2OC3)c1` as the molecule, how does the activation read?
A: inactive: -14.5%

Q: How did the activation turn out when `COc1ccc(-c2nc(CNS(=O)(=O)c3ccccc3)cs2)cc1` was run?
A: inactive: -4.63%

Q: `Cc1ccc(C)c(OCCn2cc(C(=O)c3ccco3)c3ccccc32)c1` was tested. Which activation did it give?
A: inactive: -0.0705%

Q: `CCn1c(CNC(=O)C23CC4CC(CC(C4)C2)C3)nnc1SCC(=O)Nc1ccccc1` was tested. Which activation did it give?
A: inactive: 7.66%

Q: `COc1ccccc1C(=O)NC1(C(F)(F)F)C(=O)Nc2c1c(=O)[nH]c(=O)n2-c1ccccc1` (stereo not drawn) was tested. Which activation did it give?
A: inactive: -4.13%

Q: Which activation does the source give for `Cc1oc2ncn(C)c(=O)c2c1C(=O)N1CCN(c2ccccc2)CC1` here?
A: inactive: -3.31%

Q: With `O=C(Oc1ccc(F)cc1)c1nc(SCc2ccccc2F)ncc1Cl` as the molecule, how does the activation read?
A: inactive: -13.8%

Q: `COc1c2occc2cc2ccc(=O)oc12` was tested. Which activation did it give?
A: inactive: -1.07%

Q: Which activation does the source give for `Cn1c(=O)c2c([nH]c(=O)n2Cc2ccc(Cl)cc2Cl)n(C)c1=O` here?
A: inactive: -10.5%

Q: How did the activation turn out when `Cc1ccc2c(c1)-c1nc(-c3ccc4c(c3)NC(=O)CO4)cc(-c3ccc(Cl)cc3)c1CO2` was run?
A: inactive: -12.6%

Q: `CC1CCCN(CCCNC(=O)c2cn(C)c3ccc(S(=O)(=O)N(C)C4CCCCC4)cc3c2=O)C1` (stereo not drawn) was tested. Which activation did it give?
A: inactive: -4.7%

Q: Which activation does the source give for `Cc1ccc2nc(N3CCN(C(=O)C4CC4)CC3)sc2c1` here?
A: inactive: -5.02%

Q: How did the activation turn out when `COc1ccc(-c2noc(CCC(=O)NCc3ccc(C)cc3)n2)cc1` was run?
A: inactive: -13.6%

Q: `O=c1n(Cc2cccc(C(F)(F)F)c2)c2ccccc2c2nc(-c3ccccc3)nn12` was tested. Which activation did it give?
A: inactive: -8.98%

Q: How did the activation turn out when `Cc1ccc(-c2ccc(CCC(=O)O)n2-c2cccc(O)c2)cc1` was run?
A: inactive: 0.316%

Q: `COc1ccc(-c2ccc(=O)n(CC(=O)Nc3ccc(C)cc3C)n2)cc1` was tested. Which activation did it give?
A: inactive: -18.7%

Q: How did the activation turn out when `Cc1ccc(C(=O)Nc2ccc3oc(-c4ccc(C(C)(C)C)cc4)nc3c2)cc1` was run?
A: inactive: -4.75%

Q: `CCOC(=O)c1cccc(NC(=O)Cn2ncc3c4ccccc4n(Cc4ccccc4)c3c2=O)c1` was tested. Which activation did it give?
A: inactive: -19.6%

Q: How did the activation turn out when `Cc1ccc(CNC(=O)CCCCCn2c(=O)c3sccc3n(CC(=O)N(C)c3ccccc3)c2=O)cc1` was run?
A: inactive: -2.8%

Q: Which activation does the source give for `CSc1nn(Cc2ccc(Cl)cc2)c(N(C(C)=O)C(C)=O)c1S(=O)(=O)c1ccccc1` here?
A: inactive: 17%

Q: How did the activation turn out when `CCc1ccc2oc(C(=O)Nc3cccc(C(F)(F)F)c3)cc(=O)c2c1` was run?
A: inactive: 11.6%

Q: How did the activation turn out when `Cc1ccc(NC(=O)c2cc(C)nc3c2c(C)nn3-c2cccc(Cl)c2C)c(C)c1` was run?
A: inactive: -0.319%

Q: How did the activation turn out when `Cc1cccc(Cn2c(=O)n(CCc3ccccc3)c(=O)c3c(C)c(C)sc32)c1` was run?
A: inactive: -0.38%

Q: `C#CCOc1ccc(-c2nnc(Nc3cccc(C)c3)c3ccccc23)cc1` was tested. Which activation did it give?
A: inactive: -7.47%

Q: For `Cc1ccc(NS(=O)(=O)c2ccc3[nH]c(=O)ccc3c2)cc1N(C)C`, which activation is on record?
A: inactive: 8.79%

Q: With `CCn1cc(C(=O)NCc2ccccc2OC)c(=O)c2cc(S(=O)(=O)N3CCCCC3)ccc21` as the molecule, how does the activation read?
A: inactive: -9.3%

Q: How did the activation turn out when `COc1ccccc1CN1COc2ccc3c(oc(=O)c4ccccc43)c2C1` was run?
A: inactive: -61.2%

Q: How did the activation turn out when `COc1ccc(/C=C/C(=O)Nc2sc3c(c2C(N)=O)CCCC3)cc1` was run?
A: inactive: -4.89%

Q: How did the activation turn out when `COc1cccc2sc(=NC(=O)c3ccc(S(=O)(=O)N4CCCCC4)cc3)n(C)c12` was run?
A: inactive: 15.2%

Q: How did the activation turn out when `CCOC(=O)c1cnc(NCc2ccccc2OC)c2ccccc12` was run?
A: inactive: -30.4%

Q: With `COc1ccc(S(=O)(=O)N2CCCCC2)cc1C(=O)Nc1cccc(C(F)(F)F)c1` as the molecule, how does the activation read?
A: inactive: -21.5%

Q: For `COc1ccccc1Nc1cc(C(=O)NC2CCCC2)c2ccccc2n1`, which activation is on record?
A: inactive: -8.15%

Q: `CCOC(=O)C1CCC(CN(Cc2ccc(Cl)cc2)S(=O)(=O)c2ccc(F)c(C(=O)Nc3cccc(F)c3)c2)CC1` (stereo not drawn) was tested. Which activation did it give?
A: inactive: 11.1%

Q: For `COc1ccc(N2CCN(C(=O)c3cc4ccc5cccnc5c4[nH]3)CC2)cc1`, which activation is on record?
A: inactive: -21.9%

Q: For `COc1ccc(-c2cc(C)nc3c(-c4ccc(OC)c(OC)c4)c(C)nn23)cc1`, which activation is on record?
A: inactive: -23.8%

Q: `CSc1ccc(-c2nc3ccc(C)cn3c2Nc2ccccc2C)cc1` was tested. Which activation did it give?
A: inactive: -7.33%

Q: With `Cc1cccc(-c2nnn3c2nc(NCCc2ccc(S(N)(=O)=O)cc2)c2cc(Cl)ccc23)c1` as the molecule, how does the activation read?
A: inactive: 27.1%

Q: `CS(=O)(=O)N(CC(=O)NCCc1ccccc1)c1cc(C(F)(F)F)ccc1Cl` was tested. Which activation did it give?
A: inactive: -19.2%

Q: `Cc1cccc(Oc2nc3c(c(=O)n(C)c(=O)n3C)n2C)c1` was tested. Which activation did it give?
A: inactive: -4.01%

Q: For `CCCCCn1c(=O)[nH]c2cc(C(=O)N3CCN(c4cccc(C)c4)C(C)C3)ccc2c1=O` (stereo not drawn), which activation is on record?
A: active: 104%

Q: For `O=C(NCC12CC3CC(CC(C3)C1)C2)c1cc2nc(-c3ccccc3)cc(C(F)(F)F)n2n1`, which activation is on record?
A: inactive: -1.6%

Q: With `CC(NC(=O)c1ccccc1NC(=O)c1nsc2ccccc12)c1ccccc1` (stereo not drawn) as the molecule, how does the activation read?
A: inactive: -22%

Q: How did the activation turn out when `O=C1CCCc2cc(S(=O)(=O)NCC3CCC(C(=O)Nc4ccccc4F)CC3)ccc2N1` (stereo not drawn) was run?
A: inactive: 0%

Q: Which activation does the source give for `Fc1cc(Br)ccc1Nc1c2c(nc3nc(-c4cccs4)nn13)CCCC2` here?
A: inactive: -51.1%

Q: Which activation does the source give for `CNC(=O)c1cc(Nc2nnc(-c3ccc(O)cc3)c3ccccc23)ccc1OC` here?
A: inactive: 0.272%

Q: With `COC(=O)c1ccc(OC)c(Cn2c(=O)n(Cc3ccccc3)c(=O)c3c2c2cc(OC)ccc2n3C)c1` as the molecule, how does the activation read?
A: inactive: -19.9%

Q: For `CCCCOc1ccc(C(=O)N2CCN(CCc3ccccn3)CC2)cc1`, which activation is on record?
A: inactive: 17%

Q: `CC(=O)c1ccc(NC(=O)C2=CC(c3ccc4c(c3)OCO4)=NS(=O)(=O)N2C)cc1` was tested. Which activation did it give?
A: inactive: -5.28%

Q: With `Cc1ccc(S(=O)(=O)Cc2nc(-c3ccc(C(=O)NCc4ccccc4)cc3)oc2C)cc1` as the molecule, how does the activation read?
A: active: 77.2%

Q: For `CC1CCN(Cc2c(O)ccc3c(=O)c(-c4cccc(Cl)c4)c(C(F)(F)F)oc23)CC1`, which activation is on record?
A: inactive: -2.95%

Q: `CC(=O)c1cc2c(cc1NC(=O)c1c(C)nn(-c3ccc(C)cc3)c1-n1cccc1)OCO2` was tested. Which activation did it give?
A: inactive: -9.16%

Q: Which activation does the source give for `COc1cccc(N2CCN(C(=O)c3cnn(C(C)(C)C)c3C3CCN(C(=O)OC(C)(C)C)CC3)CC2)c1` here?
A: inactive: -11.1%

Q: With `O=C(c1ccc2c(c1)CCN2S(=O)(=O)c1ccccc1)N1CCN(c2ccc(F)cc2)CC1` as the molecule, how does the activation read?
A: inactive: 1.72%
